Experimental data from PubChem BioAssay AID488969 (Vanderbilt High Throughput Screening Facility, 2010).
The full ranking holds about 110,000 compounds; the median of “z-score” is about -0.1, and the highest 2% start at about 2. This is one part of the list. The source made the active and inactive calls.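 The calls were made as follows: active = z-score in the third read window above 3 or below -3; inactive = the rest.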

Target: Metabotropic glutamate receptor 8 (Rattus norvegicus) (UniProt P70579)
Sequence of UniProt P70579 (P70579 whole entry, looked up): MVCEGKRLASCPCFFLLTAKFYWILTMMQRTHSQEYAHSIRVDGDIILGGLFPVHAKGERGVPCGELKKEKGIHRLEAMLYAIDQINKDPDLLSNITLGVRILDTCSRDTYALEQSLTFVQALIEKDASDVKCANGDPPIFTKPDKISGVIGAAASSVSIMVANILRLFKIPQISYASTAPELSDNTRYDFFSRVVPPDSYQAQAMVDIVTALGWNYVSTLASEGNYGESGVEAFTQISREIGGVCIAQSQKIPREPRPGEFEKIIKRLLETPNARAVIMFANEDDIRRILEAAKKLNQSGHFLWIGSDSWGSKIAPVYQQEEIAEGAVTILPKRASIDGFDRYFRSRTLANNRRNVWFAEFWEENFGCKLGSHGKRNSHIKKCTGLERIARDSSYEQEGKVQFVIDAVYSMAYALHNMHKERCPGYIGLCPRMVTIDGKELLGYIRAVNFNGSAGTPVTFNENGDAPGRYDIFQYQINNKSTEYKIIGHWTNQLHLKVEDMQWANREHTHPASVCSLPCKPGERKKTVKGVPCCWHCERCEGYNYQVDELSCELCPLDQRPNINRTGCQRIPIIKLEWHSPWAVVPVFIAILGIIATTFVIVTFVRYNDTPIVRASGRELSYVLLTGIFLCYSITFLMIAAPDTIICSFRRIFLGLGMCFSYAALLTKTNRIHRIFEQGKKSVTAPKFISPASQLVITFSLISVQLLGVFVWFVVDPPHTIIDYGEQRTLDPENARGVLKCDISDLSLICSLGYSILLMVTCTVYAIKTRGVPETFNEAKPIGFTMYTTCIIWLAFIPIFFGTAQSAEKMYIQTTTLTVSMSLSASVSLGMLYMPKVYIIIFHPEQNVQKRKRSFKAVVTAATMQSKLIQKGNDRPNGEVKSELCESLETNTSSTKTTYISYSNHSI
Assay: mGluR8 Gi/Go-coupled signaling modulation – cell-based, rat, thallium flux, HTS, primary screen (AID 488969)
Conditions: HEK293 rat mGluR8, GIRK (G protein-gated inwardly rectifying potassium channel) thallium flux, FluoZin2; at 10 µM; stronger effect = higher value; submaximal glutamate (EC20) added with thallium

Question: Which z-score does the source give for `Cc1ccc(-n2nnc3c(=O)n(CC(=O)N4CCOCC4)cnc32)cc1` here?
Answer: Its z-score is 0.142.

Question: With `CCCS(=O)(=O)c1c(S(=O)(=O)CCC)c2c(C)cccn2c1C(N)=O` as the compound, how does the z-score read?
Answer: Its z-score is -0.316.

Question: With `COc1ccccc1N1CCN(C(=O)CSc2ncnc3scc(-c4ccccc4)c23)CC1` as the compound, how does the z-score read?
Answer: The z-score was -0.253.

Question: For `O=C(Nc1ccc(Cl)cc1)c1ccc(-n2cccn2)c([N+](=O)[O-])c1`, which z-score is on record?
Answer: The z-score was -0.308.

Question: `Brc1ccc(-c2ccc(/C=N/Nc3nncc(-c4ccccc4)n3)o2)cc1` was tested. Which z-score did it give?
Answer: The z-score was -0.232.

Question: How did the z-score turn out when `O=C(OCCN1CCOCC1)c1ccc(OCCN2CCOCC2)cc1` was run?
Answer: The z-score was -0.22.

Question: With `CCCC1=NN2C(=N)/C(=C\c3ccc(SCc4ccco4)o3)C(=O)N=C2S1` as the compound, how does the z-score read?
Answer: The z-score was 1.03.

Question: For `Cc1cc(C)c2c(c1)/C(=C/C(=O)c1ccc(Br)s1)C(=O)N2`, which z-score is on record?
Answer: The z-score was -0.0431.

Question: How did the z-score turn out when `COc1ccc(S(=O)(=O)N(CC(=O)N2CCOCC2)Cc2ccccc2)cc1` was run?
Answer: The z-score was -0.204.

Question: `COc1ccc(OCC(=O)Nc2cccc(OC)c2)cc1` was tested. Which z-score did it give?
Answer: Its z-score is -0.532.

Question: Which z-score does the source give for `CC1CCCCC1NC(=O)COC(=O)c1ccc(N(C)C)cc1` (stereo not given) here?
Answer: Its z-score is -0.0376.

Question: For `O=C(Nc1ccc2nc(-c3cccs3)c(-c3cccs3)nc2c1)NC1CC1`, which z-score is on record?
Answer: Its z-score is 0.266.

Question: With `CCOc1[nH]n(-c2ccc(Cl)cc2)c(=O)c1C=Nc1ccc(Cl)cc1` as the compound, how does the z-score read?
Answer: Its z-score is active: 3.26.

Question: `COC(CNC(=O)c1ccc2c(c1)nc(C)n2-c1ccc(F)c(F)c1)OC` was tested. Which z-score did it give?
Answer: The z-score was 0.161.

Question: For `CC(=O)Nc1nc(C2COc3ccccc3O2)cs1` (stereo not given), which z-score is on record?
Answer: The z-score was -0.0872.

Question: `N#Cc1cc([N+](=O)[O-])cnc1NCC(O)CO` (stereo not given) was tested. Which z-score did it give?
Answer: The z-score was 0.388.

Question: Which z-score does the source give for `COc1cc(CNCc2cccs2)ccc1OCC(=O)NC(C)(C)C` here?
Answer: Its z-score is -0.0291.

Question: How did the z-score turn out when `Cc1ccc(CC2CC(=O)N(c3cc(C)on3)C2=O)cc1` (stereo not given) was run?
Answer: The z-score was -0.0692.

Question: How did the z-score turn out when `O=C(CN1C(=O)/C(=C/c2cccc(Br)c2)SC1=S)N1CCCC1` was run?
Answer: The z-score was -0.0262.

Question: `CC(C)(C)OC(=O)N1CCOCCOCCNCCOCCOCC1` was tested. Which z-score did it give?
Answer: Its z-score is 0.511.

Question: How did the z-score turn out when `COC(=O)c1c(C)[nH]c(C(=O)OCC(=O)NCC(C)C)c1C` was run?
Answer: Its z-score is -0.00108.

Question: How did the z-score turn out when `COC(=O)C(NC(=O)c1ccccc1C)(Nc1ncc(S(=O)(=O)c2ccc([N+](=O)[O-])cc2)s1)C(F)(F)F` (stereo not given) was run?
Answer: The z-score was -0.339.

Question: How did the z-score turn out when `COc1ccc(C2CC(c3ccccc3)=NN2c2ccc(/C=N/NC(=O)c3ccncc3)cc2)cc1` (stereo not given) was run?
Answer: Its z-score is -0.0709.

Question: `O=C(CSc1nnc(-c2ccccc2O)n1Cc1ccccc1)NNC(=O)c1ccccc1O` was tested. Which z-score did it give?
Answer: The z-score was -0.644.

Question: How did the z-score turn out when `CCCc1ccc(OC(=O)c2cccs2)cc1` was run?
Answer: The z-score was 0.371.

Question: For `CC(C)Nc1nc(NC(C)C)nc(N(C#N)CCOc2ccc(Cl)cc2Cl)n1`, which z-score is on record?
Answer: Its z-score is -0.569.

Question: With `Cc1cc2c(cc1C)-c1nnnn1C(C)(C)C2` as the compound, how does the z-score read?
Answer: The z-score was -0.105.

Question: Which z-score does the source give for `O=C(Cn1c(=O)sc2ccccc21)N1CCOCC1` here?
Answer: Its z-score is 0.00724.

Question: With `CCOC(=O)/C(C#N)=C/c1cn(CCC(=O)O)nc1-c1ccc(Cl)cc1` as the compound, how does the z-score read?
Answer: Its z-score is -0.502.

Question: Which z-score does the source give for `O=C(C(=O)N1CCc2ccccc2C1)N1CCc2ccccc2C1` here?
Answer: Its z-score is 0.375.
